The whole screen tested about 43,000 compounds, of which about 200 (0.47%) were called active. About 12% were inconclusive and are not listed. Calls follow the shape of the dose curve; as a rule, active = well fitted cell-killing curve with a large enough effect; inconclusive = small, poorly fitted or top-dose-only effect, or effect the other way; inactive = flat fitted curve, though single readings scatter. Some of the results follow.
assay: Cell viability qHTS assay in S16 Pmp22-F2sN cells; details: S16 Pmp22-F2sN Schwann cells viability, CellTiter-Glo, 24 h; series mostly up to 57.5 µM; activity change, negative = cytotoxicity: at the top concentration; also: nearly all actives have a fitted effect of over 65% in size
Summary of the method: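 Viability was measured by CellTiter-Glo luminescence (15 min, room temperature). This followed 24 h at 37 °C of compound exposure (23 nL pin transfer) in S16 Pmp22-F2sN Schwann cells, 500-1,000 per well.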
% is scaled to controls: 0 for no effect and ±100 for the full control effect.

Compound | activity change, negative = cytotoxicity
CCOC(=O)C1CCN(S(=O)(=O)c2csc(C(N)=O)c2)CC1 | inactive: 15.7%
COc1ccc(N2CCN(C(=O)c3cc4c(s3)-c3ccccc3OC4)CC2)cc1 | inactive: -0.061%
COc1ccc(N2CC(NC(=O)c3ccc(Br)o3)CC2=O)cc1 (configuration not stated) | inactive: 4.42%
CCc1nn2c(=O)cc(COC(=O)c3ccco3)nc2s1 | inactive: -27.8%
CCOC(=O)N1CCc2c(sc(NCc3cc(OC)c(OC)cc3OC)c2C(=O)Nc2ccc(OCC)cc2)C1 | inactive: 7.83%
CCc1ccc(-n2c(=O)c3cccnc3n2CC(=O)Nc2cc(F)ccc2F)cc1 | inactive: 5.78%
CCN(CC)C(=O)Cn1cc(SCC(=O)Nc2ccccc2C)c2ccccc21 | inactive: -4.54%
Cc1cccc(-c2nc(SCCCOc3ccc(Cl)c(C)c3)n3[nH]c(=O)cc3n2)c1 | inactive: 2.13%
CCOC(=O)c1cccc(NC(=O)NCc2ccc3c(c2)CCN3C(=O)c2ccccc2)c1 | inactive: 12%
CCOC(=O)c1ccc(-c2ccc(/C=C(\C#N)C(=O)Nc3ccc(OCC)cc3)o2)cc1 | inactive: 0.908%
CCN1CCN(c2ncc3c(n2)CCN(Cc2ccc(OC(C)C)cc2)C3)CC1 | inactive: 3.9%
CCCCN(CC)CCCNC(=O)CCN1N=C(c2ccc(OC)cc2)CCC1=O | inactive: 5.44%
COc1ccccc1NC(=O)C(=O)NCCc1csc(-c2cccc(F)c2)n1 | inactive: 16.6%
CCOC(=O)c1c(S(=O)(=O)N2CCCC(C(=O)Nc3cccc(Cl)c3)C2)c(C)n(C)c1C (configuration not stated) | inactive: -13.9%
Cc1ccc(OCC(=O)Nc2nnc(SCc3cc(=O)c4ccccc4[nH]3)s2)cc1 | inactive: -2.18%
Cc1cc(N2CCCCC2)nc2ccc(NC(=O)c3cccc(Cl)c3)cc12 | inactive: 9.1%
CCOc1ccc(CNS(=O)(=O)c2cc3c(cc2C)NC(=O)CO3)cc1OC | inactive: 1.01%
COc1cccc(CNC(=O)c2cc3c(s2)-c2ccccc2OC3)c1 | inactive: 11.3%
COc1ccc(-n2c(=O)c3c4c(sc3n(Cc3ccc(F)cc3)c2=O)CCCC4)c(OC)c1 | inactive: 3.16%
COc1ccccc1NC(=O)C1=C(C)Nc2ncnn2C1c1ccccc1C(=O)O (configuration not stated) | inactive: 1.83%
COc1ccc(NC(=O)c2cc(C3CC3)nc3c2c(C)nn3-c2ccccc2)cc1 | inactive: 13.7%

Compound | activity change, negative = cytotoxicity
COc1ccccc1-c1nnc(SCC(=O)c2ccc(Cl)cc2)n1-c1ccccc1 | inactive: -2.71%
CCOc1ccc(NC(=O)CSc2nc3c(oc4ccccc43)c(=O)n2-c2ccccc2C)cc1 | inactive: -4.02%
CC(NC(=O)c1ccc2c(c1)CCN2S(=O)(=O)c1ccc(Cl)cc1)c1ccccc1 (configuration not stated) | inactive: -15.2%
CCOc1ccc(C(=O)N2CCC(c3nc4ccccc4o3)CC2)cc1 | inactive: 5.67%
CCOc1ccc(OCC)c(NC(=O)c2nnn(CC(=O)Nc3ccc(C)cc3C)c2N)c1 | inactive: -3.94%
Cc1cc2n(n1)C(c1cc(C(C)(C)C)c(O)cc1O)Nc1ccccc1-2 (configuration not stated) | inactive: -28.3%
COc1ccccc1CNC(=O)C(NS(=O)(=O)c1cccs1)C(C)C (configuration not stated) | inactive: -9.59%
COc1ccc(-c2cc3ccc(O)c(CN4CCOCC4)c3oc2=O)cc1OC | inactive: -14.7%
Cc1ccc(-c2nc3sc(CCNC(=O)c4ccc(Br)o4)c(C)n3n2)cc1 | inactive: -11.6%
CCCCOc1ccc(C(=O)Nc2cccc(-c3nc4cccnc4s3)c2)cc1 | inactive: 0.783%
COc1ccc(N(C)C(=O)c2cn(C3CCCCC3)c(=O)c3c2c2ccccc2n3C)cc1 | inactive: -22.3%
COc1ccc(C2=NN(CC(=O)NCCc3ccc(OC)c(OC)c3)C(=O)CC2)cc1 | inactive: 1.37%
CCn1ccc2cc(S(=O)(=O)N3CCCN(C(=O)Nc4cccc(Cl)c4)CC3)ccc21 | inactive: 0.876%
Cc1ccc(NC(=O)NCCc2c(C)nn(C)c2C)cc1Cl | inactive: -5.42%
CCc1ccc(NC(=O)c2sc(-n3nc(C)c(Cc4ccc(OC)cc4)c3C)nc2C)cc1 | inactive: -7.37%
COc1cccc(NC(=O)CN2C(=O)c3cccnc3Oc3ccc(Cl)cc32)c1 | inactive: -0.889%
COc1ccc(N(C)C(=O)CCn2cnc3onc(-c4ccc(F)cc4)c3c2=O)c(OC)c1 | inactive: -9.8%
COC(=O)c1c(-c2cccs2)csc1NC(=O)COc1ccc(C(C)(C)C)cc1 | inactive: 0.269%
CCOc1ccccc1C1C(C(=O)N2CCCCC2)=C(C)Nc2nc3ccccc3n21 (configuration not stated) | inactive: 6.64%
CCOc1ccccc1NC(=O)c1nn(-c2ccc(C)cc2)c(=O)n(C)c1=O | inactive: -21.6%
Cc1ccc(C(=O)Nc2ccc(-c3cn4cccnc4n3)cc2)cc1C | inactive: 5.73%

Compound | activity change, negative = cytotoxicity
COc1ccccc1CNc1ccc(-c2nc(-c3cccnc3)no2)cc1[N+](=O)[O-] | inactive: 28.2%
Cc1cccc(OCC(=O)N(Cc2cccs2)c2ccc(Cl)cc2)c1C | inactive: -13.7%
CCCCN(CCCC)C(=O)c1cc2c(=O)n3cccc(C)c3nc2s1 | inactive: -3.32%
COc1ccc(C2CC(=O)N(CC(=O)Nc3cc(C)ccc3C)c3ccccc3S2)cc1 (configuration not stated) | inactive: 7.79%
CCOC(=O)c1cccc(NC(=O)[C@@H](c2ccccc2)N2Cc3ccccc3C2=O)c1 | inactive: 0.71%
Cc1c(-c2nsc(NC(=O)c3ccccc3)n2)nnn1-c1ccc(C(F)(F)F)c(Cl)c1 | inactive: 19.5%
O=C1c2oc3ccccc3c(=O)c2C(c2ccccc2)N1Cc1ccc2c(c1)OCO2 (configuration not stated) | inactive: 0.876%
CCN1C(=O)c2ccccc2Sc2ccc(C(=O)NCCCN(CC(C)C)CC(C)C)cc21 | inactive: -26.8%
Cc1cc(C)c(NC(=O)Cc2csc(C)n2)c(Cl)c1 | inactive: 1.14%
CCC(=O)N1c2ccccc2CC1C(=O)NCc1ccc(OC(C)C)cc1 (configuration not stated) | inactive: 9.71%
CCN(CCCNC(=O)Cn1ncc2c([nH]c3ccc(C)cc32)c1=O)c1cccc(C)c1 | inactive: 18.6%
CCc1ccccc1NC(=O)c1ccc2c(c1)N(Cc1cccc(Cl)c1)C(=O)c1ccccc1S2(=O)=O | inactive: 1.77%
CCOc1ccc(-c2nc(SCC(=O)Nc3ccc4c(c3)OCO4)c(-c3ccc(F)cc3)[nH]2)cc1 | inactive: 1.87%
COc1ccc(C2CC(=O)Nc3c2c(C)nn3-c2nncc(-c3ccc(C)cc3)n2)c(OC)c1OC (configuration not stated) | inactive: -8.28%
Cc1cccc(CCNC(=O)c2sc3nc4n(c(=O)c3c2C)CCCC4)c1 | inactive: -2.43%
O=C1CSC2(C(=O)N(Cc3ccccc3F)c3ccccc32)N1c1ccc(F)cc1 (configuration not stated) | inactive: 16.1%
COc1cc(NC(=O)c2ccc(C)cc2)ccc1NC(=O)c1cc2ccccc2o1 | inactive: -1.21%
O=C(NCCc1ccccc1)c1ccc(CS(=O)(=O)c2ccc(Br)cc2)o1 | inactive: 12%
COc1ccc(-n2ccnc2SCC(=O)Nc2ccc(F)cc2F)cc1 | inactive: 1.9%
Cc1cc2nn(-c3ccccc3)nc2cc1NC(=O)c1cccc2c(Cl)cccc12 | inactive: 4.39%
